{
  "source": "PubChem BioAssay AID588855",
  "about": "(National Center for Advancing Translational Sciences (NCATS), 2011)",
  "note": "About 5,000 (1.2%) of roughly 410,000 compounds were called active. The inconclusive results got no clear call from the source; some entries with a clear call stand among them for comparison. Calls come from the whole dose curve; as a rule, active = well fitted inhibition curve with a large enough effect; inconclusive = small, poorly fitted or top-dose-only effect; inactive = no such curve, though single readings can be large or run the other way. A potency beside an inconclusive call is a rough fit, not a confirmed value. % is set by controls: 0 for no effect and ±100 for the full control effect; potency is the fitted concentration of half-maximal effect; tags give direction and shape of the fitted curve.",
  "data": [
    {"assay": "qHTS for Inhibitors of TGF-b; note: nearly all actives have a fitted effect of over 65% in size", "conditions": "HepG2 CAGA-GFP TGF-b/SMAD3 reporter, GFP fluorescence, 18 h, TGF-beta stimulated, 500 pg/mL final; series mostly up to 46.1 µM; activity, negative = inhibition: at the top concentration", "outline": "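Inhibition of TGF-beta-driven CAGA-GFP reporter expression in HEPG2 cells is measured by cellular GFP fluorescence after 18 h stimulation with 500 pg/mL recombinant TGF-beta in 1% FBS medium at 37 degrees C.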", "values": [
      {"smiles": "CN1CCN(NC(=O)c2cn(-c3ccccc3)nc2-c2cccc(Br)c2)CC1", "Potency": "inconclusive: 22.4 µM [inhibitor, single point]"},
      {"smiles": "CC1(C)C(=O)OC(/C=C/c2cccc([N+](=O)[O-])c2)C(C)(C)C1=O", "note": "(stereo not drawn)", "Potency": "inconclusive: 15.8 µM [inhibitor, partial curve, poor fit]"},
      {"smiles": "CCc1ccc(OC(C)C(=O)N2CCC(c3nc4ccccc4s3)CC2)cc1", "note": "(stereo not drawn)", "Potency": "inconclusive: 17.8 µM [inhibitor, single point]"},
      {"smiles": "CCOC(=O)c1cnc(Nc2nc3ccccc3o2)nc1CSC(=S)N(CC)CC", "Potency": "inconclusive: 0.1 µM [inhibitor, full curve, poor fit]"},
      {"smiles": "CC(C)COc1ccc(C(=O)Nc2cccc(-c3nc4ccccc4[nH]3)c2)cc1", "Potency": "inconclusive: 8.91 µM [inhibitor, partial curve]"},
      {"smiles": "CC1Cc2ccccc2N1S(=O)(=O)c1cccc(C(=O)OCC(=O)NC2CCS(=O)(=O)C2)c1", "note": "(stereo not drawn)", "Potency": "inconclusive: 3.16 µM [inhibitor, single point]"},
      {"smiles": "COc1ccc(Cl)cc1NC(=O)CCS(=O)(=O)c1nc(-c2cccs2)cc(C(F)(F)F)n1", "Potency": "inconclusive: 25.1 µM [inhibitor, single point]"},
      {"smiles": "CCN1C(=O)[C@H]2[C@@H](c3ccc(-c4ccc(F)cc4)cc3)N[C@@](C)(C(=O)OC)[C@H]2C1=O", "activity, negative = inhibition": "inactive: -26.2%"},
      {"smiles": "O=C(CN1c2ccccc2Sc2ccccc21)NNC(=O)Nc1ccc(Cl)cc1", "Potency": "inconclusive: 35.5 µM [inhibitor, single point]"},
      {"smiles": "CCOc1ccc(OCC)c(NS(=O)(=O)c2cc(Br)cc3c2N(C(C)=O)C(C)C3)c1", "note": "(stereo not drawn)", "Potency": "inconclusive: 35.5 µM [inhibitor, partial curve, poor fit]"},
      {"smiles": "CC(Oc1ccccc1)C(=O)N1CCC2(CC1)Oc1ccc(F)cc1C(=O)C21CC(c2cccnc2)=NO1", "note": "(stereo not drawn)", "Potency": "inconclusive: 22.4 µM [inhibitor, single point]"},
      {"smiles": "COc1ccc(CCn2nnc3ccccc3c2=O)cc1OC", "activity, negative = inhibition": "inactive: 1.37%"},
      {"smiles": "CCN(CC)S(=O)(=O)c1ccc(C)c(NC(=S)N2CCN(c3ccccn3)CC2)c1", "activity, negative = inhibition": "inactive: -2.96%"},
      {"smiles": "CC(C)(C)N1C(=O)[C@H]2[C@@H](c3ccc(Br)cc3)N3C(=O)N(c4cccc(F)c4)C(=O)[C@@]3(C)[C@H]2C1=O", "Potency": "inconclusive: 35.5 µM [inhibitor, single point]"},
      {"smiles": "N#CCC(=O)Nc1ccc(C(=O)OCC(=O)Nc2ccccc2-c2ccccc2)cc1", "activity, negative = inhibition": "inactive: 9.01%"},
      {"smiles": "CN(C(=O)CSc1nc2scc(-c3ccccc3)c2c(=O)[nH]1)c1ccccc1", "Potency": "inconclusive: 11.2 µM [inhibitor, partial curve, poor fit]"},
      {"smiles": "COc1ccc(Cl)cc1N(CC(=O)N/N=C/c1ccc(OC(C)C)cc1)S(=O)(=O)c1ccc(C)c([N+](=O)[O-])c1", "activity, negative = inhibition": "inactive: -2.79%"},
      {"smiles": "CCC(=O)c1ccc(OCC(O)CN(C)C2CCCCC2)cc1", "note": "(stereo not drawn)", "Potency": "inconclusive: 35.5 µM [inhibitor, single point]"},
      {"smiles": "COc1ccc(S(=O)(=O)N2CCCCC2)cc1", "activity, negative = inhibition": "inactive: -16%"},
      {"smiles": "Cn1c(=O)c2sccc2n2c(CCCC(=O)NCc3ccco3)nnc12", "activity, negative = inhibition": "inactive: 4.38%"},
      {"smiles": "Cc1cc(N/N=C/c2ccccc2)nc(NCc2ccccc2)n1", "Potency": "inconclusive: 15.8 µM [inhibitor, single point]"},
      {"smiles": "CC(C)c1nc(C#N)c(N2CCOCC2)o1", "Potency": "inconclusive: 3.16 µM [inhibitor, single point]"},
      {"smiles": "CCOc1ccc(Cl)cc1C1=CC(=O)C[C@H](c2ccc(OC)cc2)C1", "Potency": "inconclusive: 14.1 µM [inhibitor, partial curve, poor fit]"},
      {"smiles": "CCCNC(=O)C1CCN(S(=O)(=O)c2ccc(Br)cc2)CC1", "activity, negative = inhibition": "inactive: 0.141%"},
      {"smiles": "O=[N+]([O-])c1cc(CN2CCCC2)c2cccnc2c1O", "activity, negative = inhibition": "inactive: 6.07%"},
      {"smiles": "CC1O[C@@H](OC2C(O)C(C)O[C@H](OC(=O)[C@]34CCC(C)(C)C[C@H]3C3=CCC5[C@@]6(C)CC(O)C(O[C@@H]7OC(CO)C(O)[C@@H](O)[C@@H]7O)[C@@](C)(C(=O)O)C6CC[C@@]5(C)[C@]3(CO)CC4)C2O[C@H]2OC(C)[C@@H](O[C@@H]3OCC(O[C@@H]4OC(CO)C(O)[C@H](O)C4O)[C@@H](O)[C@@H]3O)[C@H](O)C2O)C(O)C(O)C1O", "note": "(stereo partly drawn)", "Potency": "inconclusive: 6.31 µM [inhibitor, partial curve, poor fit]"},
      {"smiles": "CCOc1ccc2[nH]c(=O)c(CN(Cc3ccco3)C(CC)c3nnnn3Cc3ccccc3)cc2c1", "note": "(stereo not drawn)", "Potency": "inconclusive: 20 µM [inhibitor, single point]"},
      {"smiles": "COc1ccccc1CNC(=O)CCCc1nnc2n(CC(C)C)c(=O)c3sccc3n12", "Potency": "inconclusive: 11.2 µM [inhibitor, partial curve]"},
      {"smiles": "CC(=O)N1CCc2c(sc3c2c(=O)n(-c2ccccc2)c(=O)n3CC(=O)Nc2cccc(C)c2)C1", "Potency": "inconclusive: 25.1 µM [inhibitor, single point]"},
      {"smiles": "COc1cc(/C=C/c2cccc[n+]2C)ccc1OCC(=O)Nc1cccc(Cl)c1", "activity, negative = inhibition": "inactive: 30.6%"},
      {"smiles": "O=C(NNC(=S)Nc1cccc(C(F)(F)F)c1)c1cccc(Cl)c1", "Potency": "inconclusive: 35.5 µM [inhibitor, single point]"},
      {"smiles": "Cc1cc(C)cc(NS(=O)(=O)c2ccc(Oc3ncc(C(F)(F)F)cc3Cl)cc2)c1", "Potency": "active: 12.6 µM"},
      {"smiles": "COc1cccc(/C=C2\\SC(=S)N(CCC(=O)NC3C=CS(=O)(=O)C3)C2=O)c1", "note": "(stereo not drawn)", "Potency": "inconclusive: 11.2 µM [inhibitor, partial curve, poor fit]"},
      {"smiles": "CC(=O)/C(=N/Nc1ccc(Br)cc1)Sc1cccc2cccnc12", "Potency": "inconclusive: 3.55 µM [inhibitor, partial curve, poor fit]"},
      {"smiles": "CCN(CC)CCNC(=O)C(Cl)=C1C(Cl)=C(Cl)C(Cl)=C1Cl", "Potency": "inconclusive: 35.5 µM [inhibitor, single point]"},
      {"smiles": "COC(=O)C(=C/C(C)=C/c1cccs1)C(=O)OC", "Potency": "inconclusive: 17.8 µM [inhibitor, single point]"},
      {"smiles": "CCN(CC(=O)NCc1cccs1)S(=O)(=O)c1ccccc1Cl", "Potency": "inconclusive: 6.31 µM [inhibitor, single point]"},
      {"smiles": "COc1ccc(-n2nnnc2C(C2CC2)N2CCN(C/C=C/c3ccccc3)CC2)cc1", "note": "(stereo not drawn)", "Potency": "inconclusive: 11.2 µM [inhibitor, single point]"}
    ]}
  ]
}
